Assay results from a collection of fitness landscapes (doi:10.1016/j.celrep.2020.107928).
In all, about 81,000 sequences were measured (“one-hybrid fitness for binding NBS DNA”: median about -0.1, highest 2% from about 0.36 on). The list shows a part of the results.

B1: Caulobacter ParB omega fusion; a variant is named by its letters at X, in order, B8GW30 (parent)
chain: MESVVVGEPGMSEGRRGLGRGLSALLGEVDAAPAQAPGEQLGGSREAPIEILQRNPDQPRRTFREEDLEDLSNSIREKGVLQPILVRPSPDTAGEYQIVAGERAWRAAQRAGLKTVPIMVRELDDLAVLEIGIIENVQRADLNVLEEALSYKVLMEKFERTQENIAQTIGKSXSHVANXMRLLXLPDEVQSYLVSGELTAXHARAIAAAADPVALAKQIIEGGLSVRETEALARKAPNLSAGKSKGGRPPRVKDTDTQALESDLSSVLGLDVSIDHRGSTGTLTITYATLEQLDDLCNRLTRGI

Variants of: B1
Test: one-hybrid fitness for binding NBS DNA (the Noc-binding site; scaled: cognate 1, non-cognate 0); higher = stronger binding
Settings: with NBS DNA site
Method in brief: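 The reporter was HIS3, with the binding site 19 bp from the promoter, in E. coli USO used for bacterial one-hybrid selection of Caulobacter ParB libraries with four specificity codons randomised. Growth was on M9 lacking histidine, with 0.1 mM IPTG and 5 mM 3-AT, for 48 hours at 37°C. Illumina sequencing covered plasmids before and after selection; three replicate libraries were pooled and variants with under 10 reads dropped. A fitness score is the log change in variant-to-wild-type read ratio, rescaled to the cognate and non-cognate references.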

Variant	one-hybrid fitness for binding NBS DNA
LMSV	≤ 0.2
HWNT	≤ 0.2
PVYS	≤ 0.2
LVAV	≤ 0.2
QMSH	≤ 0.2
VSQD	≤ 0.2
NHNP	≤ 0.2
EAKL	≤ 0.2
EEYS	≤ 0.2
GLAR	≤ 0.2
PIEM	≤ 0.2
TRDN	≤ 0.2
KKIL	≤ 0.2
KRPN	≤ 0.2
TVAG	≤ 0.2
IICG	≤ 0.2
SHYM	≤ 0.2
SKKH	≤ 0.2
HHRC	≤ 0.2
KDMC	≤ 0.2
KEPS	≤ 0.2
TSAG	≤ 0.2
HMNR	≤ 0.2
YCYV	≤ 0.2
RQWY	≤ 0.2

Variant	one-hybrid fitness for binding NBS DNA
TCER	≤ 0.2
RTQP	≤ 0.2
CGQG	≤ 0.2
LPPI	≤ 0.2
LEAL	≤ 0.2
CDAG	≤ 0.2
NHTI	≤ 0.2
WRPT	≤ 0.2
YKTL	≤ 0.2
TSFN	≤ 0.2
VFHS	≤ 0.2
GWVS	≤ 0.2
RMSY	≤ 0.2
KQVS	≤ 0.2
KFWG	≤ 0.2
ICRG	≤ 0.2
CTGL	≤ 0.2
QVMN	≤ 0.2
RYRA	0.367
ATTK	≤ 0.2
VEWC	≤ 0.2
WIMN	≤ 0.2
ATAT	≤ 0.2
VRTS	≤ 0.2
QEAR	≤ 0.2

Variant	one-hybrid fitness for binding NBS DNA
RVHN	≤ 0.2
WHSN	≤ 0.2
GGMM	≤ 0.2
NHTM	≤ 0.2
PLIA	≤ 0.2
PNFC	≤ 0.2
SPNE	≤ 0.2
TFPG	≤ 0.2
GSHI	≤ 0.2
SDCS	≤ 0.2
TALP	≤ 0.2
QTVP	≤ 0.2
PAPT	≤ 0.2
GAKS	≤ 0.2
QLYR	0.425
SMNT	≤ 0.2
KTQC	≤ 0.2
LYSH	≤ 0.2
YNGV	≤ 0.2
CGAA	≤ 0.2
APGN	≤ 0.2
HSSQ	≤ 0.2
QSFG	≤ 0.2
RVDF	≤ 0.2
FAHG	≤ 0.2

Variant	one-hybrid fitness for binding NBS DNA
RSDA	≤ 0.2
DHIC	≤ 0.2
GWPS	≤ 0.2
RELE	≤ 0.2
DTFA	≤ 0.2
FWAG	≤ 0.2
LCDI	≤ 0.2
GSRF	≤ 0.2
RAEN	≤ 0.2
QSNP	≤ 0.2
LQDG	≤ 0.2
CAPG	≤ 0.2
GLAV	≤ 0.2
CRQR	≤ 0.2
YQAL	≤ 0.2
PMRY	≤ 0.2
HMCA	≤ 0.2
SRCN	≤ 0.2
PTNS	≤ 0.2
MTLL	≤ 0.2
DICV	≤ 0.2
NCIC	≤ 0.2
TCPF	≤ 0.2
TTVV	≤ 0.2
SLLW	≤ 0.2

Variant	one-hybrid fitness for binding NBS DNA
ILAV	≤ 0.2
VFVC	≤ 0.2
RASD	≤ 0.2
STNT	≤ 0.2
HIPD	≤ 0.2
LIQR	≤ 0.2
NILC	≤ 0.2
LDHW	≤ 0.2
AMRC	≤ 0.2
RNKH	0.237
CERS	≤ 0.2
EMKC	≤ 0.2
RCFD	≤ 0.2
LENE	≤ 0.2
RDRF	≤ 0.2
DGAR	≤ 0.2
RCAS	0.476
AVRR	≤ 0.2
KGER	≤ 0.2
SRLD	≤ 0.2
NWHS	≤ 0.2
WTGE	≤ 0.2
KDPP	≤ 0.2
DIEW	≤ 0.2
GHNR	≤ 0.2

Variant	one-hybrid fitness for binding NBS DNA
PIVW	≤ 0.2
GHEF	≤ 0.2
QIMG	≤ 0.2
PCTV	≤ 0.2
TYRD	≤ 0.2
SLYC	≤ 0.2
RKYM	≤ 0.2
LGIT	≤ 0.2
IYPV	0.41
FCYS	≤ 0.2
TSEY	≤ 0.2
NNLR	≤ 0.2
AFDV	≤ 0.2
YHLN	≤ 0.2
DMQP	≤ 0.2
FSWL	≤ 0.2
WRMN	≤ 0.2
LEWS	≤ 0.2
KLKI	≤ 0.2
RAWD	≤ 0.2
RGWW	≤ 0.2
CQPI	≤ 0.2
WCQS	≤ 0.2
QWGI	≤ 0.2
ATNR	≤ 0.2

Variant	one-hybrid fitness for binding NBS DNA
QPTP	≤ 0.2
VCRN	≤ 0.2
HNHG	≤ 0.2
VSFG	≤ 0.2
TAAA	≤ 0.2
IIYR	≤ 0.2
PWPG	≤ 0.2
WFTL	≤ 0.2
RNNM	≤ 0.2
VAAQ	≤ 0.2
QPPR	≤ 0.2
FNKG	≤ 0.2
YARY	≤ 0.2
TEKM	≤ 0.2
VELF	≤ 0.2
VKMG	≤ 0.2
NHVD	≤ 0.2
DLLR	≤ 0.2
KWDD	≤ 0.2
VGGS	≤ 0.2
LLLC	≤ 0.2
MQKG	≤ 0.2
QFES	≤ 0.2
NMYC	≤ 0.2
GINW	≤ 0.2

Variant	one-hybrid fitness for binding NBS DNA
DYTF	≤ 0.2
DYQG	≤ 0.2
MLFS	≤ 0.2
WKCG	≤ 0.2
LKYE	≤ 0.2
VSGT	≤ 0.2
DAKR	≤ 0.2
AHGR	≤ 0.2
DTVV	≤ 0.2
RPIW	≤ 0.2
DLKY	≤ 0.2
EPKW	≤ 0.2
HFSY	≤ 0.2
IKCG	≤ 0.2
DSGV	≤ 0.2
CAAC	≤ 0.2
TATG	≤ 0.2
PRKI	≤ 0.2
KLCM	≤ 0.2
RIDD	≤ 0.2
